In the supplement of paper PMC3334620:
In all, about 33,000 sequences were measured (“E-score (-0.5 to 0.5)”: median about -0.04, highest 2% from about 0.36 on). The list shows a part of the results.

Target: T1, Hmlalpha2 (UniProt P0CY09)
T1 sequence: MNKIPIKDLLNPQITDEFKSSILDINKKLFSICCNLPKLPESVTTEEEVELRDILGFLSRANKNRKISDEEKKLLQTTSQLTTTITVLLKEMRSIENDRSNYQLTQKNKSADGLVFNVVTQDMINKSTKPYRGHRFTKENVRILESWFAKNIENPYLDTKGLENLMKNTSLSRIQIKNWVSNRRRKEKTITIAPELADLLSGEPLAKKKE
Assay: PBM E-score (8-mer binding enrichment) (E-score (-0.5 to 0.5)); higher = stronger / more preferred TF binding; most listed sequences are background and not binding sites
Details: protein concentration: 200 nM; construct: GST-full length
How it was run: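 The E-score, a modified Wilcoxon-Mann-Whitney statistic, was computed by the Universal PBM Analysis Suite for every ungapped eight-base word pooled with its reverse complement. Scans behind it were normalised with masliner after bound GST-tagged yeast transcription factors were detected with fluorescent anti-GST. The proteins, at about 100-200 nM, had been applied to universal all-10-mer Agilent arrays made double-stranded by primer extension.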

Sequence	PBM E-score
AACAAAAC	0.288
ACCGACTG	-0.317
GCCGTGGA	-0.216
CGACACTA	-0.00101
AGAACAAC	0.0835
CATTTATA	0.113
CTGGTTCA	0.0589
AAGCCCTT	-0.211
CATACCCA	0.182
AGGGGACG	-0.25
AATAAGTA	0.137
GGGGTTCA	-0.279
AGTCCAAC	-0.0711
AGTCTTGC	0.0218
ATCTTTCA	0.0227
GCGCCCTA	-0.256
AGATTTGA	0.0464
GTGTACGA	0.212
ACAAGCAC	0.157
AAAAAGTG	0.0712
CCGGTCGC	-0.136
ATAGTGAT	-0.0723
CCTGAAAA	-0.0981
GCCCAGAC	-0.34
ACTCTTAC	0.167

Sequence	PBM E-score
AAGTGTAG	0.0742
CGGTCCGA	-0.256
TAGAAAGA	-0.075
GACGCAGC	0.00318
AATAGGAG	-0.0208
ACTAGGAG	-0.0601
AATTGAAG	0.0126
AGAAGCGC	-0.0481
CCAACTAC	0.0725
CCGCTCAG	-0.0603
TATTAATA	0.173
CCATCGAG	0.048
CTCCTCGA	-0.141
ACGGACAC	0.117
CAACACGG	0.386
CTTCGCGC	0.00199
GACACAGA	-0.00939
AAGGGACT	-0.252
CAGCCTAA	-0.0547
AAGACTAT	-0.0495
AAGATTCA	0.0956
CCACGCCG	-0.15
AATGGTTA	0.168
CGATCCTC	-0.16
TCCATAAA	-0.149

Sequence	PBM E-score
ACGTACTC	0.107
CCCTATAA	-0.167
GTCTCCAC	-0.178
AAGGCAGA	-0.13
CTCTGGTC	-0.143
CAGCGATA	-0.186
GATCCAGA	-0.0146
AGATAATC	0.0024
CTGGACTA	-0.119
CAGGTTCA	0.0208
CCAAGGAG	-0.276
GCGATCTA	0.0689
CGTGTGAA	0.347
ATCGAGAC	-0.0984
ATCGTGCA	0.247
AGCCATAT	-0.24
GTTCATAA	0.0277
GTCTGTTA	0.218
AATCTACC	0.132
GACACCTA	-0.204
ATTGATAG	0.0987
AGGGCGGC	-0.229
ACACTTCT	0.207
CAGCAGTC	-0.215
CCATATAC	0.109

Sequence	PBM E-score
ATATAACA	0.384
CTATGAAA	-0.148
TGCGTACA	0.34
CGCTGAGA	-0.139
TACAACAA	0.343
ACTGTCCG	-0.162
GCCAGAAA	-0.0992
AACCTTAC	0.0858
CTGTGGTA	0.00157
ACTTTGGA	0.136
CTGGGAAC	0.0389
GGTTTAAC	0.279
GCATCCAC	-0.0842
ATGCGTTG	0.205
ACTCTCTC	-0.0496
GACTTAAA	-1e-05
ACTGTTTG	0.0875
AGTATACA	0.322
ACAAGAAT	0.232
CAGAGCAG	-0.0684
ACGGCCCG	-0.151
AATTGTAC	0.242
GAGTGCGA	-0.329
CAACATAC	0.303
CCCAACGC	0.0787

Sequence	PBM E-score
ACTTCACA	0.176
CTTAAGCC	-0.0732
CTGCCACC	-0.252
ACAAGCGC	0.0928
ACCGAATC	7e-05
GCATGTCC	-0.0024
ACGCATCT	0.155
CAGTCGCA	-0.206
TGTAGACA	0.341
CGGCTCAG	-0.0972
CATGATAA	0.322
CTGTTCTA	0.102
ATCGTGTA	0.475
CTCGGAAC	-0.021
ACGCATAG	0.0324
CACACCTA	0.0464
CGGGGCCA	-0.254
CAATTATG	0.117
ACTGGCAT	-0.206
ACGCATAT	0.136
TATTACGA	0.285
CCTCGTTC	-0.142
ATATTGAT	-0.0428
ATCAAACA	0.0336
AATCCCAA	-0.104

Sequence	PBM E-score
TTTCGAAA	0.0465
GGGACCAC	-0.112
AGGTACTG	-0.0369
ATTAGACA	0.182
AGCCGATG	-0.139
AAATTAAC	0.217
ACGGAGAT	-0.286
CCAACGAG	-0.159
CTGGTCCC	-0.224
AACTATTA	0.172
ACTTAATG	0.175
GTCGCTAA	0.0136
ATATTATG	0.257
ATATGCAA	0.089
CATCCTCG	0.00622
AGCGTTCC	-0.145
GATTAATC	0.0567
CTATTGAG	-0.0536
CTACTCTA	-0.0943
GATCTGAC	-0.0309
CGATTAAA	0.12
ATTTGGTA	0.0623
CCCGGGTC	-0.336
CGGGTAAA	0.234
AGCGCGGC	-0.0315

Sequence	PBM E-score
AGGGCTCG	-0.275
AAGAAATG	-0.0371
CCTCACCA	-0.177
ACCGAGGG	-0.364
AAGTGGTA	0.0573
ATTTTTGA	0.0657
CCGTTCCC	-0.229
GAGCAGCA	-0.127
ACAGCAAT	0.0423
ATACGATC	-0.0381
GATCTGCC	-0.0569
AAAGAATC	-0.124
CGCTACTC	-0.113
ACTTCGAT	0.0864
AAGGGGTG	-0.182
GCCTGCAA	-0.23
AGTGTAGC	-0.046
AGAGCTAG	-0.0667
GTAGTCAC	-0.0239
CTAGAGGA	-0.0758
GAAAAGTA	-0.0314
AATGTGCA	0.077
